From ChEMBL document CHEMBL4888484, “Replenishing the malaria drug discovery pipeline: Screening and hit evaluation of the MMV Hit Generation Library 1 (HGL1) against asexual blood stage Plasmodium falciparum ,using a nano luciferase reporter read-out” (2022)
About 540 (0.36%) of roughly 150,000 compounds showed an effect of 50% or more. The list shows a part of the results.

What follows are compounds tested on Plasmodium falciparum (assay: Primary screen in NF54 nanoGlo assay, in single point, at 2uM, 72h; a lower Z score goes with more inhibition). Conditions: timepoint 72 hour.
Format: functional, Erythrocyte
With `O=C(Cn1cnc2ccccc21)N1CCC(N2CC(=O)N(CC(F)(F)F)C2=O)CC1` the “% Inhibition” value was 1% and the Z score was -0.15.
`O=C1NC(=O)[C@@]2(CCCN(S(=O)(=O)c3cccc4c3OC(F)(F)O4)C2)N1` was tested, and the “% Inhibition” value was -20% and the Z score was 1.99.
For `CCCNS(=O)(=O)c1cc(-c2c(C)noc2NC(C)=O)ccc1OC`, the “% Inhibition” value was -10% and the Z score was 1.42.
In the case of `CN(CCCNC(=O)C1CCN(c2ccc(N3CCCC3)nn2)CC1)c1ccccc1`, the “% Inhibition” value is reported as -25% and the Z score is reported as 4.44.
`O=C(Cc1ccc(-n2ccnc2)cc1)N1C2CCC1CC(O)C2` (centres undefined) was tested, and the “% Inhibition” value was -4% and the Z score was 0.44.
For `CC(=O)Nc1cc(N[C@@H](C)c2cn(C(C)(C)C)nc2C)ccc1C`, the “% Inhibition” value was -2% and the Z score was 0.22.
For `CC1(C)C[C@@H](O)CCN(Cc2cncs2)C1`, the “% Inhibition” value was -6% and the Z score was 0.83.
In the case of `CCc1nsc(NC[C@H]2CCCN2S(C)(=O)=O)n1`, the “% Inhibition” value is reported as -7% and the Z score is reported as 1.03.
With `CCCC1(C2CCN(C(=O)c3ccc(C(C)=O)cc3)CC2)NC(=O)N(CC2CCCO2)C1=O` (centres undefined) the “% Inhibition” value was -8% and the Z score was 1.05.
For `Cc1ccnc(N2Cc3cnc(CC(C)C)nc3C2)n1`, the “% Inhibition” value was -13% and the Z score was 2.52.
`Cc1cc(F)ccc1-c1nccn1CCN(C)S(C)(=O)=O` was tested, and the “% Inhibition” value was -11% and the Z score was 2.02.
`CN1CCN(C[C@@H]2CN(C(=O)c3ccc4ncccc4c3)C[C@@H]2CO)CC1` was tested, and the “% Inhibition” value was -9% and the Z score was 1.52.
With `O=C(NCc1ccco1)c1nn(-c2cccc(C(F)(F)F)c2)c(=O)n(Cc2ccc(F)cc2)c1=O` the “% Inhibition” value was -13% and the Z score was 1.79.
For `Cc1cnn([C@@H](C)CNC(=O)CCn2nnc3ccccc32)c1`, the “% Inhibition” value was -3% and the Z score was 0.63.
For `CN(C[C@H]1CCCN1Cc1cnc2cnccn12)C(=O)OC(C)(C)C`, the “% Inhibition” value was 1% and the Z score was -0.09.
`Cc1nc(COC(=O)C2CCN(S(=O)(=O)c3ccc(C(C)(C)C)cc3)CC2)cs1` was tested, and the “% Inhibition” value was -8% and the Z score was 1.17.
`O=C(N[C@@H]1CN(c2ccncn2)C[C@H]1CO)c1cccnc1` was tested, and the “% Inhibition” value was -6% and the Z score was 0.84.
For `Brc1cnc(N2CCN(Cc3cocn3)CC2)nc1`, the “% Inhibition” value was 8% and the Z score was -0.89.
With `COc1cccc(C(=O)N2CCN(C3=Nc4ccccc4Oc4ccc(OC)cc43)C[C@@H]2C)c1` the “% Inhibition” value was -8% and the Z score was 0.77.
With `O=C(C[C@H]1COCCN1C(=O)c1ccncc1F)c1ccco1` the “% Inhibition” value was -6% and the Z score was 0.81.
`C[C@H](Nc1ccc(Nc2ccccc2)cc1)C(=O)Nc1ccc(S(N)(=O)=O)cc1` was tested, and the “% Inhibition” value was -12% and the Z score was 1.95.
For `COc1ccc(NS(=O)(=O)Cc2ccccc2)c(C)n1`, the “% Inhibition” value was -6% and the Z score was 0.59.
